Sequences and labels used below:
B1: CPEB3 Ribozyme (parent)
chain: UAACAGGGGGCCACAGCAGAAGCGUUCACGUCGCAGCCCCUGUCAGAUUCUGGUGAAUCUGCGAAUUCUGCUGUAUAUCUC

Read counts are not given, so values of variants with three or more changes are uncertain.

In this data set the parent is B1. Description: self-cleavage, relative activity (ratio to wild type); higher = more cleavage; in vitro, sequencing. The gist of the method: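 For each CPEB3 ribozyme variant, relative activity is its cleaved/total read fraction divided by the unmutated ribozyme's. Barcoded error-prone PCR libraries were transcribed by T7 RNA polymerase (5 hours, 37°C) and held in DNase I for 15 min before an EDTA stop, with cleavage occurring throughout. Template-switching reverse transcription and Illumina sequencing were used to read the RNAs. A 5-read minimum applied, and results are the mean of three batches.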
Turning to UAACAGGGGGCCGCAGCAGAAGCGUUCACGUCGCAGACCCUGCCAGAUUCUGGUGAAUCUGCGAAUUCUGCUGUAUAUCUC [A13G C37A U43C], the self-cleavage was found to be 0.16. As to UAACAGGGGGCCGCAGCAGAAGCGUUCAGGUCGCAGCCCCUGUCAGAUUCUGGUGAAUCUGCGAAUUCUGCUGUAUACCUC [A13G C29G U78C], the self-cleavage worked out at 0.28. Regarding UAACAGGGGGCCGCAGCAGAAGCGUUCACGUCGCAGGCCCUGCCAGAUUCUGGUGAUUCUGCGAAUUCUGCAGUACAUCUC [A13G C37G U43C A57U U72A U76C], the self-cleavage was 0.09. UAACAGGGGGCCGCAACAGAAGCGUUCGCGUCGCAGCCCCUGCCAGAUUCUGGUGAAUCCGCGAAUUCUGCUGUAUACCUC [A13G G16A A28G U43C U60C U78C]: the self-cleavage worked out at 0.15.

Consider UAACAGGGGGCCGCAGCAGAAGCGUUCAUGUCGCAGCCCCUGUCAGAUUCUUGUGAAUCUGCGAAUUCUGCUAUAUACCUC [A13G C29U G52U G73A U78C], for which the self-cleavage turned out to be 0.77. In the case of UAACAGGGGGCCGCAACAGAAGCGUUCACGUCGCAGCCCCUGUCAGAUUCUGGUGAGUCUGCGAAUUCUGCUGUAUGUCUC [A13G G16A A57G A77G], the self-cleavage was 0.13. UAACAGGGGGCCGCAGCAGAAGCGUUUACGUCGCAGCCCCGGUCAGAUUCUGGCGAAUCUGCGAAUUCUGCAGUAUACCCC [A13G C27U U41G U54C U72A U78C U80C]: the self-cleavage was 0.06. As for UAACAGGGGGCCGCAACAGAAGCGCUCACGUCGCAGCCCCUGUCAGAUUCUGGUGAAUCUGCGAAUUCUUCUGUAUAUCUC [A13G G16A U25C G70U], the self-cleavage was 0.29. With UAACAGGGGGCCGCAGCAGAAGCGUUCACGUCGCAGCCCUAGUCAGAUUCUGGUGAAUCUGCGAAGACUGCUGUAUUUCUC [A13G C40U U41A U66G U67A A77U], the self-cleavage was 0.05. Turning to UAACAGGGGGCCGCAGCAGAAUCGUUCUCGUCGCAGCCCCUGUCAGAUUCUGGUGAAUCUGCGAAUUCUGCUGUAUUUCUC [A13G G22U A28U A77U], the self-cleavage came to 0.08. Take UAACAGGGGGCCGCAGCAGAAGCCUCCACGUCGCAGCCCCUGUCAGAUUCUGGUGAGUCUGCGGAUUCUGCAGUAUAUUUC [A13G G24C U26C A57G A64G U72A C79U]: the self-cleavage came out at 0.07. As to UAACAGGGGGCCGCAGCAGAAGCGUUCACGUCGCAGCUCCUGUCAGAUUCUGGUGAGUCCGCGUAUUCUGCCGUAUAUCUC [A13G C38U A57G U60C A64U U72C], the self-cleavage was 0.07. Take UAACAGGGGGCCGCAACAGAAGCGUUCACGUCGCAGCCCCUGUCAGAUUCUGGUCAAUCUGCGAAUUCUGCAGUAUAUCUC [A13G G16A G55C U72A]: the self-cleavage was 0.08. Turning to UAACAGGGGGCCGCAGCAGAAGCGUUCACGUCGCAGUCCCUGUCAGAUUCUGGUGAAUCUGCGAACUCUGCUGUAUAUCAC [A13G C37U U66C U80A], the self-cleavage was 0.09. UAACAGGGGGCCGCAGCAGAAGCGUUCACGUUGCAGCCCCUGUCGGAUUCUGGUGAAUCUGCGAGCUCUGCUGUAUAUCUC [A13G C32U A45G A65G U66C]: the self-cleavage was 0.21. On to UAACAGGGGGCCGCAGCAGAAGCGUUCACGUCGCAGUCCCUGUCAGAUUCUGGUGAAUCUGCGAAUUCUGCUGUAUUUCUC [A13G C37U A77U], for which the self-cleavage came to 1.03. Regarding UAACAGGGGGCCGCAGCAGAAACGUUCACGUCGCAGCCCCUGUCAGAUUCUGGUGAAUCUGCGAAUUCUGCCGUAUAUCUC [A13G G22A U72C], the self-cleavage was determined as 0.09. Regarding UAACAGGGGGCCGCAGCAGAAGCGUUCACGUCGUAGCCCCUGUCAGAUUCCGGAGAAUCUGCGAAUUCUGCUGUAUAUCUC [A13G C34U U51C U54A], the self-cleavage was found to be 0.48. To UAACAGGGGGCCGCAGCAGAACCGUUCACGUCGCAGCCCCUGUCGGAUUCUGGUGAAUCUGCGAAUUCUGCUGUUUAUCUC [A13G G22C A45G A75U] belongs 0.03; to UAACAGGGGGCCGCAGCAGAAGCGUUCACGUCGCAGCCUCUGUCAGAUUCUGGAGAAUCGGCGAAUUCUGCUGUACAUCUC [A13G C39U U54A U60G U76C], 0.16. Turning to UAACAGGGGGCCGCAGCAGAAGCGUUUACGUCGCAGCCCCUGUCAGAUUCUGGUGAAUCUGCGAACUCUGCUGUAUAUCUC [A13G C27U U66C], the self-cleavage was found to be 0.25. Under UAACAGGGGGCCGCAGCAGAAGCGUUCACGUUGUAGCCCCUGUCAGAUUCUGGUGAAUCUGCGAAUCCUGCUGUAUAUCUC [A13G C32U C34U U67C] stands 0.11; under UAACAGGGGGCCGCAGCAGAAGCGUUCACGUUGCAGCCCCUGUCAGAUUCUGGUGAAUCUGCGAAUUCUGCUGAAUGUCUC [A13G C32U U74A A77G], 0.08.

With UAACAGGGGGCCGCAGCAGAAGCGUUCAUGUCGCAGCCCCUGUCAGAUUCCGGCGAAUCUGCGAUUUCUGCUGUAUAUCUC [A13G C29U U51C U54C A65U], the self-cleavage came out at 0.1. Under UAACAGGGGGCCGCAGCAGAAGCAUUCACGUCGCGGCCCCUGUCAGAUUCUGGUGAAUCUGCGAAUUCAGCUGUAUAUCUC [A13G G24A A35G U69A] stands 0.22; under UAACAGGGGGCCGCAGCAGAAGCAUUCACGUCGCAGCCCCUGACAGAUUCUGGUGAAUCUGCGAAUUCUGCUGUAUAUCUC [A13G G24A U43A], 0.07; under UAACAGGGGGCCGCAGCAGAAGCGUUUACGUCGCAGCCCCUGUCAGAUUCUGGUGCAUCUGCGAAUUCUGCUGUAUAUCUC [A13G C27U A56C], 0.14. For the variant UAACAGGGGGCCGCAGCAGAAGCGUUUCCGUCGCAGCCCCUGUCAGAUUCUGGUGAAUCUGAGAAUUCUGCUGUAUAUCUC [A13G C27U A28C C62A], the self-cleavage amounted to 0.11. In the case of UAACAGGGGGCCGCAGCAGAAGCGUUCACGUCGCAGCCCCUGUCAGAUUCUGGUGAAUCUGUGAAUUCUGCUGUAUAUCCC [A13G C62U U80C], the self-cleavage turned out to be 0.55. In the case of UAACAGGGGGCCGCAGCAGAAGCGUUCACGUCGCAGCCCUUGUCAGAUACUGGUGAAUCUGCGAAUUCUGCUGUAUACCUC [A13G C40U U49A U78C], the self-cleavage was 0.18. Regarding UAACAGGGGGCCGCAGCAGAAGCGUUCACGUUGCAGCCCCUGUCAGAAUCUGGUGAAUCUGCGAAUUCUGCUGUAUACCUC [A13G C32U U48A U78C], the self-cleavage stood at 0.06. Turning to UAACAGGGGGCCGCAGCAGAAGCGUUCACGUCGCAGCCCUUGCCACAUUCUGGUGAACCUGCGAAUUCUGCUGUAUAUCUC [A13G C40U U43C G46C U58C], the self-cleavage is 0.07. UAACAGGGGGCCGCAGCAGAAGCGUUCACGUCGCAGGCCCUGUCAGAUUCUGGUGUAUCUGCGAAUUCUGCUGCAUAUCCC [A13G C37G A56U U74C U80C]: the self-cleavage came to 0.09. Consider UAACAGGGGGCCGCAGCAGAAGCGUUCACGUCGCAGCACCAGUCAGAUUCCGGUGAAUCUGCGAAUUCUGCUGUAUAUCUC [A13G C38A U41A U51C], for which the self-cleavage was found to be 0.13.
